Our source for the growth yield values is the supplement of paper PMC8007513.

Each structure is given as a SMILES string. Counter-ions that a name gives are not always drawn. ± gives the standard error. Among all 1,300 compounds or so, about 75 (6%) showed an effect of 50% or more. The list shows a part of the results.

For the experiment, the system named is Trichoderma virens ATCC 9645. The experiment in a line: growth yield (OD600) relative to untreated control; higher = less growth inhibition. The note with it: compound concentration: 100 uM. The method in brief: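 Growth appears as means of duplicate screens, relative to the control containing neither agent. To obtain it, OD600 was read on a BioTek EL800 at 40 h and 72 h. The cultures were 100 μl aliquots in 96-well plates at 30 °C, holding Trichoderma virens ATCC 9645 spores at 15,000 spores ml^−1 in potato dextrose broth, library compounds at 100 μM final, and, in some wells, a biocide at 200 ng ml^−1.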

Regarding `CCC(=O)O[C@H]1CC[C@H]2[C@@H]3CCC4=CC(=O)CC[C@]4(C)[C@H]3CC[C@]12C` [Testosterone propionate], the growth yield runs as follows: (40 h) 96.7 ± 10%; (72 h) 99.1 ± 7.5%.
For `COc1ccc(OC)c(C(O)C(C)N)c1` (stereo unspecified) [Methoxamine hydrochloride] the same measures were 100.7 ± 1e-14% and 101.6 ± 0.32%.
For `CCC1(C)CC(=O)NC(=O)C1` [Bemegride] the same measures were 99.9 ± 5.6% and 97.4 ± 2%.
The corresponding values for `CCCC(C)(COC(N)=O)COC(=O)NC(C)C` (stereo unspecified) [Carisoprodol] are 103 ± 4.1% and 104 ± 2.7%.
In turn, `C[N+]1(C)CCCC(OC(=O)C(O)(c2ccccc2)c2ccccc2)C1` (stereo unspecified) [Mepenzolate bromide] gave a growth yield (40 h) of 93.4 ± 0.32% and a growth yield (72 h) of 87.9 ± 1.3%.
For `NC(=O)OCCCc1ccccc1` [Phenprobamate] the same measures were 104 ± 6.3% and 101 ± 4.6%.
With `OC(c1ccccc1)(c1ccccc1)C1CCNCC1` [Azacyclonol], the growth yield (40 h) was found to be 99.1 ± 3.8% and the growth yield (72 h) stood at 99.4 ± 1.5%.
For `COC[C@@H](NC(C)=O)C(=O)NCc1ccccc1` [Lacosamide] the same measures were 102 ± 1.8% and 103 ± 2.7%.
Consider `C[C@]12C/C(=C/O)C(=O)C[C@@H]1CC[C@@H]1[C@@H]2CC[C@@]2(C)[C@H]1CC[C@]2(C)O` [Oxymetholone], for which the growth yield runs as follows: (40 h) 96.9 ± 9.2%; (72 h) 91.5 ± 4.8%.
For `C=C1C[C@@H]2[C@H](CC[C@]3(C)C(=O)CC[C@@H]23)[C@@]2(C)C=CC(=O)C=C12` [Exemestane], the growth yield (40 h) was found to be 102 ± 7.5% and the growth yield (72 h) was determined as 102 ± 5.1%.
For `CC(=O)[C@H]1CC[C@H]2[C@@H]3CC[C@H]4C[C@H](O)CC[C@]4(C)[C@H]3C(=O)C[C@]12C` [Alfaxalone] the same measures were 90.9 ± 3.8% and 92.82 ± 0.73%.
The corresponding values for `CN1C(=O)CCS(=O)(=O)C1c1ccc(Cl)cc1` (stereo unspecified) [Chlormezanone] are 99.91 ± 0.48% and 103 ± 2.3%.
The corresponding values for `C[C@]12COC(=O)C[C@@H]1CC[C@@H]1[C@@H]2CC[C@@]2(C)[C@H]1CC[C@]2(C)O` [Oxandrolone] are 93.2 ± 1.4% and 93.4 ± 2%.
In the case of `COc1cc2c(c(OC)c1OC)-c1ccc(OC)c(=O)cc1[C@@H](NC(C)=O)CC2` [Colchicine], the growth yield came out at 98.48 ± 0.32% (40 h) and 103.1 ± 0.94% (72 h).
`CC[N+]1(C)CCCC(OC(=O)C(O)(c2ccccc2)c2ccccc2)C1` (stereo unspecified) [Pipenzolate bromide]: the growth yield turned out to be 102 ± 1.6% (40 h) and 92.71 ± 0.21% (72 h).
The corresponding values for `CCCCCC[C@H]1C(=O)O[C@H](C)[C@H](NC(=O)c2cccc(NC=O)c2O)C(=O)O[C@@H](C)[C@@H]1OC(=O)CC(C)C` [Antimycin A] are 27.5 ± 1.1% and 49.6 ± 2.6%.
For `c1ccc2c(c1)OCC(C1=NCCN1)O2` (stereo unspecified) [Idazoxan hydrochloride] the same measures were 95.6 ± 2.2% and 95.23 ± 0.21%.
For `C[C@]12CC[C@H](O)C[C@H]1CC[C@@H]1[C@@H]2CC[C@]2(C)[C@@H](C3=CC(=O)OC3)CC[C@]12O` [Digitoxigenin] the same measures were 99.3 ± 5.9% and 102 ± 5.8%.
`CC(C)c1cccc(C(C)C)c1O` [Propofol]: the growth yield by setting is: (40 h) 99.12 ± 0.95%; (72 h) 98.2 ± 1.3%.
The corresponding values for `Oc1ccc2c3c1O[C@H]1[C@@H](O)CC[C@@]4(O)[C@@H](C2)N(CC2CCC2)CC[C@]314` [Nalbuphine hydrochloride] are 98.3 ± 1.1% and 99.8 ± 1.7%.
The corresponding values for `CN1C[C@H](CNC(=O)OCc2ccccc2)C[C@@H]2c3cccc4c3c(cn4C)C[C@H]21` [Metergoline] are 94 ± 2.9% and 109 ± 3.2%.
For `O=C(NCNC(=O)NC1C(=O)NC(=O)N1CO)NC1C(=O)NC(=O)N1CO` (stereo unspecified) [Imidurea] the same measures were 102 ± 3.6% and 99.4 ± 2.1%.
Regarding `CC(=O)O[C@H]1CC[C@@]2(C)C(=CC[C@@H]3[C@@H]2CC[C@]2(C)C(=O)CC[C@@H]32)C1` [Dehydroisoandosterone 3-acetate], the growth yield (40 h) was determined as 91.7 ± 1.4% and the growth yield (72 h) came to 92.08 ± 0.42%.
The corresponding values for `O=[N+]([O-])O[C@H]1CO[C@H]2[C@@H]1OC[C@H]2O[N+](=O)[O-]` [Isosorbide dinitrate] are 93.6 ± 4% and 87.7 ± 2.3%.
For `C=C1CC[C@@]2(O)[C@H]3Cc4ccc(O)c5c4[C@@]2(CCN3CC2CC2)[C@H]1O5` [Nalmefene hydrochloride] the same measures were 103 ± 7% and 98.8 ± 6.1%.
In the case of `O=C(CCCN1CCC2(CC1)C(=O)NCN2c1ccccc1)c1ccc(F)cc1` [Spiperone], the growth yield came to 101 ± 2.4% (40 h) and 105 ± 2.9% (72 h).
For `CC(N)C(O)c1ccccc1` (stereo unspecified) [Phenylpropanolamine hydrochloride] the same measures were 101.2 ± 0.48% and 104 ± 2.4%.
For `NCC1(CC(=O)O)CCCCC1` [Gabapentin] the same measures were 99.4 ± 1.3% and 99.11 ± 0.32%.
The corresponding values for `CCOC(=O)c1cncn1[C@H](C)c1ccccc1` [Etomidate] are 97.4 ± 6.2% and 89 ± 4.3%.
On to `CC(O)(CS(=O)(=O)c1ccc(F)cc1)C(=O)Nc1ccc(C#N)c(C(F)(F)F)c1` (stereo unspecified) [Bicalutamide], for which the growth yield by setting is: (40 h) 98.3 ± 4.3%; (72 h) 95.1 ± 3%.
The corresponding values for `C[C@@H]1C[C@@H]([C@H](O)CC2CC(=O)NC(=O)C2)C(=O)[C@@H](C)C1` [Cycloheximide] are 46.7 ± 7.3% and 75.5 ± 5.5%.
The corresponding values for `Cc1cc(C(C#N)c2ccc(Cl)cc2)c(Cl)cc1NC(=O)c1cc(I)cc(I)c1O` (stereo unspecified) [Closantel] are 98.5% and 99.6%.
The corresponding values for `CC[C@@H](CO)NC(=O)[C@@H]1C=C2c3cccc4[nH]cc(c34)C[C@H]2N(C)C1` [Methylergometrine maleate] are 95.3 ± 3.2% and 98.9 ± 1.6%.
As to `O=c1[nH]oc2c1CCNC2` [THIP Hydrochloride], the growth yield reads like this: (40 h) 99.4 ± 1.9%; (72 h) 99.6 ± 2.5%.
For `CN[C@@H]1[C@@H](O)[C@@H](O[C@@H]2[C@@H](O)[C@H](O[C@H]3O[C@H](CN)CC[C@H]3N)[C@@H](N)C[C@H]2N)OC[C@]1(C)O.CN[C@@H]1[C@@H](O)[C@@H](O[C@@H]2[C@@H](O)[C@H](O[C@H]3O[C@H]([C@@H](C)N)CC[C@H]3N)[C@@H](N)C[C@H]2N)OC[C@]1(C)O.CN[C@@H]1[C@@H](O)[C@@H](O[C@@H]2[C@@H](O)[C@H](O[C@H]3O[C@H]([C@@H](C)NC)CC[C@H]3N)[C@@H](N)C[C@H]2N)OC[C@]1(C)O` [Gentamicine sulfate] the same measures were 101% and 97.3%.
Take `O=C1CC[C@@]2(O)[C@H]3Cc4ccc(O)c5c4[C@@]2(CCN3CC2CC2)[C@H]1O5` [Naltrexone hydrochloride dihydrate]: the growth yield turned out to be 105 ± 6.2% (40 h) and 105 ± 5.3% (72 h).
In the case of `CN1CCN(C(=O)O[C@H]2c3nccnc3C(=O)N2c2ccc(Cl)cn2)CC1` [Eszopiclone], the growth yield reads like this: (40 h) 95.1 ± 4%; (72 h) 98 ± 3.4%.
For `CN1CCC2(C)c3cc(O)ccc3N(C)C12` (single isomer, unassigned; (-)) [(-)-Eseroline fumarate salt] the same measures were 95.78 ± 0.16% and 91.66 ± 0.63%.
The corresponding values for `CC(NC(C)(C)C)C(=O)c1cccc(Cl)c1` (stereo unspecified) [Bupropion hydrochloride] are 103.2 ± 0.64% and 104 ± 1.1%.
For `C#C[C@]1(O)CC[C@H]2[C@@H]3CCC4=CC(=O)CCC4=C3C=C[C@@]21CC` [Gestrinone] the same measures were 107 ± 9.4% and 96.8 ± 7.2%.
In turn, `CN1[C@@H]2C[C@@H](OC(=O)[C@H](CO)c3ccccc3)C[C@H]1[C@@H]1O[C@@H]12` [Scopolamine hydrochloride] displayed a growth yield (40 h) of 101 ± 4.6% and a growth yield (72 h) of 97.3 ± 2.3%.
For `NCC(CC(=O)O)c1ccc(Cl)cc1` (racemic) [Baclofen (R,S)] the same measures were 105 ± 4.1% and 105 ± 4.7%.
`N[C@@H]1C[C@H]1c1ccccc1` [Tranylcypromine hydrochloride]: the growth yield runs as follows: (40 h) 99.4 ± 2.2%; (72 h) 99.21 ± 0.42%.
The corresponding values for `C=CCN1CC[C@]23c4c5ccc(O)c4O[C@H]2C(=O)CC[C@@]3(O)[C@H]1C5` [Naloxone hydrochloride] are 101 ± 1.6% and 103 ± 1.1%.
For `CCCC(C)C1(CC)C(=O)NC(=O)NC1=O` (stereo unspecified) [Pentobarbital] the same measures were 101.3 ± 0.95% and 102 ± 1.7%.
`C[C@]12CCC(=O)C=C1C=C[C@@H]1[C@@H]2CC[C@@]2(C)[C@H]1CC[C@@]2(O)CCC(=O)O` [Canrenoic acid potassium salt]: the growth yield runs as follows: (40 h) 92.6 ± 2.7%; (72 h) 91.2 ± 4.4%.
The corresponding values for `c1ccc2c(c1)Nc1ccccc1S2` [Phenothiazine] are 53.7 ± 6.7% and 57.9 ± 3.4%.
The corresponding values for `CC(=O)O[C@H]1C[C@@H]2CC[C@@H]3[C@H](CC[C@@]4(C)[C@H]3C[C@H]([N+]3(C)CCCCC3)[C@@H]4OC(C)=O)[C@@]2(C)C[C@@H]1[N+]1(C)CCCCC1` [Pancuronium bromide] are 94.2 ± 1.4% and 74.1 ± 2%.
For `C[C@]12CC[C@H]3[C@@H](CCC4=CC(=O)CC[C@@H]43)[C@@H]1CC[C@@H]2O` [Nandrolone] the same measures were 92.6 ± 2.4% and 98 ± 1.5%.
For the compound `COc1ccc(CN2CCNCC2)c(OC)c1OC` [Trimetazidine dihydrochloride], the growth yield runs as follows: (40 h) 105 ± 0.48%; (72 h) 104.6 ± 0.52%.
Consider `C[C@H](N)[C@H](O)c1ccc(O)c(O)c1` [Levonordefrin], for which the growth yield (40 h) came to 100.9 ± 0.48% and the growth yield (72 h) worked out at 93.2 ± 1.4%.
For `CC(C)N(CCC(C(N)=O)(c1ccccc1)c1ccccn1)C(C)C` (stereo unspecified) [Disopyramide] the same measures were 100 ± 1.3% and 101 ± 1.6%.
For `O=[N+]([O-])O[C@@H]1CO[C@H]2[C@@H]1OC[C@@H]2O` [Isosorbide mononitrate] the same measures were 98.32 ± 0.79% and 96.3 ± 1.7%.
The corresponding values for `CN[C@@H]1C[C@@H](c2ccc(Cl)c(Cl)c2)c2ccccc21` [Indatraline hydrochloride] are 105 ± 9.2% and 109 ± 8.6%.
With `CN1[C@@H]2CC[C@H]1C[C@@H](OC(=O)[C@H](CO)c1ccccc1)C2` [Hyoscyamine (L)], the growth yield by setting is: (40 h) 97.8 ± 3.2%; (72 h) 95.4%.
Consider `COc1ccc2c(c1)[C@]13CCCC[C@@H]1[C@H](C2)N(C)CC3` [Dextromethorphan hydrobromide monohydrate], for which the growth yield was found to be 104 ± 2.4% (40 h) and 103 ± 2.6% (72 h).
For `C[C@]12CC[C@@H](O)C[C@@H]1CC[C@@H]1[C@@H]2CC[C@]2(C)C(=O)CC[C@@H]12` [Androsterone] the same measures were 79.9 ± 2.1% and 93.86 ± 0.32%.
The corresponding values for `CNCC(O)c1ccc(O)cc1` (racemic) [(+,-)-Synephrine] are 105 ± 4.3% and 100 ± 2.3%.
Turning to `C1CCc2nnnn2CC1` [Pentylenetetrazole], the growth yield was determined as 105 ± 3.6% (40 h) and 107 ± 4.5% (72 h).
The corresponding values for `CC(Cc1ccc(O)cc1)NCC(O)c1cc(O)cc(O)c1` (stereo unspecified) [Fenoterol hydrobromide] are 96.42 ± 0.16% and 96 ± 1.8%.
Compound `C=CC[C@]1(O)CC[C@H]2[C@@H]3CCC4=CC(=O)CCC4=C3C=C[C@@]21C` [Altrenogest] registered a growth yield (40 h) of 97.7 ± 6.2% and a growth yield (72 h) of 90.9 ± 3.5%.
For `CC(C)CC(N(C)C)C1(c2ccc(Cl)cc2)CCC1` (stereo unspecified) [Sibutramine hydrochloride] the same measures were 99.4 ± 3.2% and 103 ± 5.5%.
The corresponding values for `C#C[C@]1(O)CC[C@H]2[C@@H]3CCC4=CC(=O)CC[C@]4(C)[C@H]3CC[C@@]21C` [Ethisterone] are 98.5 ± 1.3% and 101 ± 2.5%.
